# Results reported in the supplement of paper PMC6089552.
# Among all 3,200 compounds or so, about 300 (9.4%) showed activity. The list shows a part of the results, in another mix than the full data.
# Test system: A673/TR/shEF
# Assay: cell viability (LOESS-normalised, relative to median of negative controls) (log2 ratio); higher = more viable cells (less compound effect), active = hit call of the paper (over 3 MAD below the median)
# Conditions: treatment time: 72 h
# Summary of the method: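 Doxycycline, present or absent from 24 h before compounds, was used to induce EWS-FLI1 shRNA knockdown in A673/TR/shEF Ewing sarcoma cells at 1,500 per well in 384-well plates. Cells then received library compounds at two or more concentrations, or DMSO controls, for three days. Viability was measured by CellTiter-Glo luminescence on an Envision reader, and per-plate LOESS correction, division by the negative-control median and log2 transformation followed.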
# [1] = 0.25 µM, library screen: screen1, EWS-FLI1 expression: high (no doxycycline)
# [2] = 0.25 µM, library screen: screen1, EWS-FLI1 expression: low (doxycycline-induced shRNA knockdown)
# [3] = 2.5 µM, library screen: screen1, EWS-FLI1 expression: high (no doxycycline)
# [4] = 2.5 µM, library screen: screen1, EWS-FLI1 expression: low (doxycycline-induced shRNA knockdown)
# [5] = 0.103 µM, library screen: screen3, EWS-FLI1 expression: high (no doxycycline)
# [6] = 0.103 µM, library screen: screen3, EWS-FLI1 expression: low (doxycycline-induced shRNA knockdown)
# [7] = 0.308 µM, library screen: screen3, EWS-FLI1 expression: high (no doxycycline)
# [8] = 0.308 µM, library screen: screen3, EWS-FLI1 expression: low (doxycycline-induced shRNA knockdown)
# [9] = 0.926 µM, library screen: screen3, EWS-FLI1 expression: high (no doxycycline)
# [10] = 0.926 µM, library screen: screen3, EWS-FLI1 expression: low (doxycycline-induced shRNA knockdown)
# [11] = 2.8 µM, library screen: screen3, EWS-FLI1 expression: high (no doxycycline)
# [12] = 2.8 µM, library screen: screen3, EWS-FLI1 expression: low (doxycycline-induced shRNA knockdown)
# [13] = 8.3 µM, library screen: screen3, EWS-FLI1 expression: high (no doxycycline)
# [14] = 8.3 µM, library screen: screen3, EWS-FLI1 expression: low (doxycycline-induced shRNA knockdown)
# [15] = 25 µM, library screen: screen3, EWS-FLI1 expression: high (no doxycycline)
# [16] = 25 µM, library screen: screen3, EWS-FLI1 expression: low (doxycycline-induced shRNA knockdown)
# [17] = 0.25 µM, library screen: screen2, EWS-FLI1 expression: high (no doxycycline)
# [18] = 0.25 µM, library screen: screen2, EWS-FLI1 expression: low (doxycycline-induced shRNA knockdown)
# [19] = 2.5 µM, library screen: screen2, EWS-FLI1 expression: high (no doxycycline)
# [20] = 2.5 µM, library screen: screen2, EWS-FLI1 expression: low (doxycycline-induced shRNA knockdown)
structure (smiles),measurement,setting,value
C[C@H]1[C@H](C)CC[C@]2(C(=O)O)CC[C@]3(C)C(=CC[C@@H]4[C@@]5(C)CC[C@H](O)C(C)(C)[C@@H]5CC[C@]43C)[C@H]12,cell viability (log2),[1],inactive: 0.086
same,cell viability (log2),[2],inactive: -0.0788
same,cell viability (log2),[3],inactive: 0.14
same,cell viability (log2),[4],inactive: -0.02
NC(=O)Nc1cc(-c2cccc(F)c2)sc1C(=O)N[C@H]1CCCNC1,cell viability (log2),[5],inactive: 0.0878
same,cell viability (log2),[6],inactive: -0.0161
same,cell viability (log2),[7],inactive: 0.0969
same,cell viability (log2),[8],inactive: 0.0124
same,cell viability (log2),[9],inactive: 0.0104
same,cell viability (log2),[10],inactive: 0.0143
same,cell viability (log2),[11],inactive: 0.0125
same,cell viability (log2),[12],inactive: 0.004
same,cell viability (log2),[13],inactive: 0.0348
same,cell viability (log2),[14],inactive: 0.0727
same,cell viability (log2),[15],inactive: 0.0502
same,cell viability (log2),[16],inactive: 0.0243
Oc1ccc2c(c1)OC[C@H]1c3cc4c(cc3O[C@@H]21)OCO4,cell viability (log2),[1],inactive: 0.0543
same,cell viability (log2),[2],inactive: -0.104
same,cell viability (log2),[3],inactive: 0.119
same,cell viability (log2),[4],inactive: 0.0894
O=C(c1ccc(F)cc1)C1CCN(CCn2c(=O)[nH]c3ccccc3c2=O)CC1,cell viability (log2),[17],active: -0.282
same,cell viability (log2),[18],active: -0.245
same,cell viability (log2),[19],active: -2.12
same,cell viability (log2),[20],active: -2.83
CCN(CC)C(=O)c1ccc(O)c(OC)c1,cell viability (log2),[17],inactive: 0.169
same,cell viability (log2),[18],inactive: -0.0132
same,cell viability (log2),[19],inactive: 0.114
same,cell viability (log2),[20],inactive: -0.052
NC1(C(=O)O)CC1,cell viability (log2),[1],inactive: 0.064
same,cell viability (log2),[2],inactive: 0.0956
same,cell viability (log2),[17],active: -0.141
same,cell viability (log2),[18],active: -0.0707
same,cell viability (log2),[3],inactive: 0.122
same,cell viability (log2),[4],inactive: 0.0925
same,cell viability (log2),[19],inactive: 0.123
same,cell viability (log2),[20],inactive: 0.0434
CC(=O)[C@@]1(O)CC[C@H]2[C@@H]3CCC4=CC(=O)CC[C@]4(C)[C@H]3CC[C@@]21C,cell viability (log2),[1],inactive: 0.135
same,cell viability (log2),[2],inactive: 0.114
same,cell viability (log2),[17],inactive: 0.00581
same,cell viability (log2),[18],inactive: 0.114
same,cell viability (log2),[3],inactive: 0.103
same,cell viability (log2),[4],inactive: -0.0537
same,cell viability (log2),[19],inactive: 0.141
same,cell viability (log2),[20],inactive: 0.0883
Nc1nccc(Oc2ccc(NC(=O)c3c[nH]cc(-c4ccc(F)cc4)c3=O)cc2F)c1Cl,cell viability (log2),[5],inactive: 0.0573
same,cell viability (log2),[6],inactive: 0.129
same,cell viability (log2),[7],inactive: -0.0185
same,cell viability (log2),[8],inactive: 0.0852
same,cell viability (log2),[9],inactive: 0.059
same,cell viability (log2),[10],inactive: 0.0991
same,cell viability (log2),[11],inactive: 0.111
same,cell viability (log2),[12],inactive: 0.205
same,cell viability (log2),[13],inactive: 0.0158
same,cell viability (log2),[14],inactive: 0.199
same,cell viability (log2),[15],inactive: -0.109
same,cell viability (log2),[16],inactive: 0.174
CN(C)CCOC(c1ccccc1)c1ccccc1.Cn1c(=O)c2[nH]c(Cl)nc2n(C)c1=O,cell viability (log2),[1],inactive: 0.158
same,cell viability (log2),[2],inactive: 0.107
same,cell viability (log2),[3],inactive: 0.172
same,cell viability (log2),[4],inactive: 0.13
CSC(=N)N,cell viability (log2),[17],inactive: 0.199
same,cell viability (log2),[18],inactive: 0.177
same,cell viability (log2),[19],inactive: 0.163
same,cell viability (log2),[20],inactive: 0.129
COc1ccc(OC)c(CN2CCN(Cc3ccc(OC)c(OC)c3OC)CC2)c1,cell viability (log2),[1],inactive: 0.0155
same,cell viability (log2),[2],inactive: 0.0265
same,cell viability (log2),[3],inactive: 0.162
same,cell viability (log2),[4],inactive: 0.0778
COc1cc2c(cc1OC)[C@@H]1C(=O)c3c(cc4c(c3O)C=CC(C)(C)O4)O[C@@H]1CO2,cell viability (log2),[1],inactive: -0.0181
same,cell viability (log2),[2],inactive: -0.000972
same,cell viability (log2),[3],active: -0.392
same,cell viability (log2),[4],inactive: -0.0174
O=C1NCC2(CCN(CCc3ccccc3)CC2)O1,cell viability (log2),[1],inactive: -0.0202
same,cell viability (log2),[2],inactive: 0.0747
same,cell viability (log2),[17],inactive: 0.0181
same,cell viability (log2),[18],inactive: 0.097
same,cell viability (log2),[3],inactive: 0.108
same,cell viability (log2),[4],inactive: 0.0398
same,cell viability (log2),[19],inactive: 0.129
same,cell viability (log2),[20],inactive: 0.0095
COc1cc(C)c(C(=O)Oc2cc(C)c(C(=O)O)c(O)c2C)c(OC)c1C,cell viability (log2),[1],inactive: 0.0483
same,cell viability (log2),[2],inactive: 0.0178
same,cell viability (log2),[3],inactive: 0.131
same,cell viability (log2),[4],inactive: 0.00206
Nc1nc(NCCNc2ncc(-n3ccnc3)c(-c3ccc(Cl)cc3Cl)n2)ccc1[N+](=O)[O-],cell viability (log2),[5],inactive: 0.0217
same,cell viability (log2),[6],inactive: -0.00304
same,cell viability (log2),[7],inactive: 0.104
same,cell viability (log2),[8],inactive: -0.0076
same,cell viability (log2),[9],inactive: 0.0742
same,cell viability (log2),[10],inactive: -0.0267
same,cell viability (log2),[11],inactive: 0.0566
same,cell viability (log2),[12],inactive: -0.237
same,cell viability (log2),[13],inactive: -0.0267
same,cell viability (log2),[14],inactive: 0.0274
same,cell viability (log2),[15],inactive: 0.00604
same,cell viability (log2),[16],inactive: -0.0487
CC(=O)O[C@@H]1C[C@H]2C(C)(C)C(=O)C=C[C@]2(C)[C@H]2CC[C@@]3(C)[C@H](c4ccoc4)OC(=O)[C@H]4O[C@]43[C@@]21C,cell viability (log2),[1],inactive: 0.164
same,cell viability (log2),[2],inactive: -0.0142
same,cell viability (log2),[3],inactive: 0.196
same,cell viability (log2),[4],inactive: 0.111
CSCC[C@H](NC=O)C(=O)N[C@@H](Cc1ccccc1)C(=O)O,cell viability (log2),[1],inactive: 0.0894
same,cell viability (log2),[2],inactive: 0.169
same,cell viability (log2),[3],inactive: 0.0791
same,cell viability (log2),[4],inactive: 0.113
Cc1cc2nc3c(=O)[nH]c(=O)nc-3n(C[C@H](O)[C@H](O)[C@H](O)CO)c2cc1C,cell viability (log2),[5],inactive: 0.0621
same,cell viability (log2),[6],inactive: -0.0327
same,cell viability (log2),[7],inactive: -0.0824
same,cell viability (log2),[8],inactive: -0.00521
same,cell viability (log2),[9],inactive: 0.0196
same,cell viability (log2),[10],inactive: 0.0373
same,cell viability (log2),[11],inactive: -0.0375
same,cell viability (log2),[12],inactive: 0.0522
same,cell viability (log2),[13],inactive: 0.0494
same,cell viability (log2),[14],inactive: 0.121
same,cell viability (log2),[15],inactive: 0.118
same,cell viability (log2),[16],inactive: 0.0177
CCOC(=O)c1c[nH]c2c(C)cccc2c1=O,cell viability (log2),[1],inactive: 0.111
same,cell viability (log2),[2],inactive: 0.0771
same,cell viability (log2),[3],inactive: 0.1
same,cell viability (log2),[4],inactive: -0.0609
O=C(O)CN(CCN(CC(=O)O)CC(=O)O)CC(=O)O,cell viability (log2),[1],inactive: 0.122
same,cell viability (log2),[2],inactive: 0.135
same,cell viability (log2),[3],inactive: 0.205
same,cell viability (log2),[4],inactive: 0.185
CC(C)(C)[C@]1(O)CCN2CC3c4ccccc4CCc4cccc(c43)[C@@H]2C1 (stereo not given in full),cell viability (log2),[17],inactive: 0.166
same,cell viability (log2),[18],inactive: 0.165
same,cell viability (log2),[19],inactive: 0.11
same,cell viability (log2),[20],inactive: 0.076
CO[C@H]1/C=C/O[C@@]2(C)Oc3c(C)c(O)c4c(O)c(c5c(nc6cc(C)ccn65)c4c3C2=O)NC(=O)/C(C)=C\C=C\[C@H](C)[C@H](O)[C@@H](C)[C@@H](O)[C@@H](C)[C@H](OC(C)=O)[C@@H]1C,cell viability (log2),[5],inactive: -0.0707
same,cell viability (log2),[6],inactive: 0.0464
same,cell viability (log2),[7],inactive: 0.0386
same,cell viability (log2),[8],inactive: 0.036
same,cell viability (log2),[9],inactive: -0.103
same,cell viability (log2),[10],inactive: 0.0741
same,cell viability (log2),[11],inactive: 0.0459
same,cell viability (log2),[12],inactive: 0.0491
same,cell viability (log2),[13],inactive: 0.0185
same,cell viability (log2),[14],inactive: 0.0543
same,cell viability (log2),[15],inactive: -0.064
same,cell viability (log2),[16],inactive: -0.0313
